Test results as given in the supplement of paper PMC10369915.
The list shows a part of the results. Rule as the data show it: active = 3.2 or more and inactive = the rest. Most of these values are background signal.

These binders were tested against SHP2 C-SH2 domain E139D (assay: enrichment score (SH2-bound / input frequency) (ratio); bacterial display of known human phosphotyrosine sites (pTyr-Var adds point mutants) read by sequencing; higher = stronger binding; tyrosines were phosphorylated by kinases first). Settings: peptide library: Human pTyr.
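Also: displayed peptides selected on beads carrying the immobilized SH2 domain, with library peptides lacking any tyrosine serving as negative controls.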

Enrichment score, inactive:
SEDEEDDYQQKRKGV [HAP28_HUMAN_70] 1.27
IRSEENIYTIEENVY [HAVR2_HUMAN_265] 1.18
VGAHAGEYGAEALER [HBA_HUMAN_25] 0.652
ASPHCPVYVPDPTST [HCK_HUMAN_51] 1.19
SVTTGATYSAGPASW [AKAP8_HUMAN_51_YA] 0.63
AQEDGKVYINMPGRG [HCST_HUMAN_86] 0.781
IGAGKGKYYAVNFPM [HDAC2_HUMAN_222] 2.18
IGAGKGKYAAVNFPM [HDAC2_HUMAN_222_YA] 2.37
SSNFDSIYICPSTFA [HDAC6_HUMAN_570] 1.54
VRVCEPCYEQLNRKA [HGS_HUMAN_216] 0.993
IDPELARYLNRNYWE [HGS_HUMAN_329] 0.67
SKAVCSTYLQSRYYR [HIPK2_HUMAN_361] 0.898
SKTVCSTYLQSRYYR [HIPK3_HUMAN_359] 1.37
SKTVCSTYLQSRAAR [HIPK3_HUMAN_359_YA] 1.14
ISTRRSSYEDSSLPS [HNF4A_HUMAN_144] 1
IDDNEAAYLKAIIFF [HNF4A_HUMAN_288_YA] 2.06
GYGGYDDYGGYNDGY [HNRH2_HUMAN_246] 0.557
YAGGRGSYGDLGGPI [HNRPK_HUMAN_380] 0.55

Each binder was assayed against SHP2 C-SH2 domain wild-type in the same assay as above. Settings: peptide library: Human pTyr.

Enrichment score, inactive:
SEDEEDDYQQKRKGV [HAP28_HUMAN_70] 1.06
IRSEENIYTIEENVY [HAVR2_HUMAN_265] 1.35
VGAHAGEYGAEALER [HBA_HUMAN_25] 0.523
ASPHCPVYVPDPTST [HCK_HUMAN_51] 0.901
SVTTGATYSAGPASW [AKAP8_HUMAN_51_YA] 0.613
AQEDGKVYINMPGRG [HCST_HUMAN_86] 0.704
IGAGKGKYYAVNFPM [HDAC2_HUMAN_222] 2.58
IGAGKGKYAAVNFPM [HDAC2_HUMAN_222_YA] 3.11
SSNFDSIYICPSTFA [HDAC6_HUMAN_570] 1.34
VRVCEPCYEQLNRKA [HGS_HUMAN_216] 0.713
IDPELARYLNRNYWE [HGS_HUMAN_329] 0.678
SKAVCSTYLQSRYYR [HIPK2_HUMAN_361] 0.774
SKTVCSTYLQSRYYR [HIPK3_HUMAN_359] 1.32
SKTVCSTYLQSRAAR [HIPK3_HUMAN_359_YA] 1.06
ISTRRSSYEDSSLPS [HNF4A_HUMAN_144] 1.11
IDDNEAAYLKAIIFF [HNF4A_HUMAN_288_YA] 1.94
GYGGYDDYGGYNDGY [HNRH2_HUMAN_246] 0.483
YAGGRGSYGDLGGPI [HNRPK_HUMAN_380] 0.524

What follows are binders tested against SHP2 N-SH2 domain L43F in the same assay as above. Settings: peptide library: Human pTyr.

Enrichment score, inactive:
SEDEEDDYQQKRKGV [HAP28_HUMAN_70] 0.97
IRSEENIYTIEENVY [HAVR2_HUMAN_265] 1.24
VGAHAGEYGAEALER [HBA_HUMAN_25] 0.557
ASPHCPVYVPDPTST [HCK_HUMAN_51] 0.918
SVTTGATYSAGPASW [AKAP8_HUMAN_51_YA] 0.527
AQEDGKVYINMPGRG [HCST_HUMAN_86] 0.553
IGAGKGKYYAVNFPM [HDAC2_HUMAN_222] 2.34
IGAGKGKYAAVNFPM [HDAC2_HUMAN_222_YA] 2.5
SSNFDSIYICPSTFA [HDAC6_HUMAN_570] 1.32
VRVCEPCYEQLNRKA [HGS_HUMAN_216] 0.786
IDPELARYLNRNYWE [HGS_HUMAN_329] 0.703
SKAVCSTYLQSRYYR [HIPK2_HUMAN_361] 0.787
SKTVCSTYLQSRYYR [HIPK3_HUMAN_359] 1.36
SKTVCSTYLQSRAAR [HIPK3_HUMAN_359_YA] 1.41
ISTRRSSYEDSSLPS [HNF4A_HUMAN_144] 1.11
IDDNEAAYLKAIIFF [HNF4A_HUMAN_288_YA] 1.91
GYGGYDDYGGYNDGY [HNRH2_HUMAN_246] 0.542
YAGGRGSYGDLGGPI [HNRPK_HUMAN_380] 0.63

Each binder was assayed against SHP2 N-SH2 domain T42A in the same assay as above. Settings: peptide library: Human pTyr.

Enrichment score, inactive:
SEDEEDDYQQKRKGV [HAP28_HUMAN_70] 0.978
IRSEENIYTIEENVY [HAVR2_HUMAN_265] 1.09
VGAHAGEYGAEALER [HBA_HUMAN_25] 0.629
ASPHCPVYVPDPTST [HCK_HUMAN_51] 0.987
SVTTGATYSAGPASW [AKAP8_HUMAN_51_YA] 0.559
AQEDGKVYINMPGRG [HCST_HUMAN_86] 0.572
IGAGKGKYYAVNFPM [HDAC2_HUMAN_222] 2.56
IGAGKGKYAAVNFPM [HDAC2_HUMAN_222_YA] 2.33
SSNFDSIYICPSTFA [HDAC6_HUMAN_570] 1.33
VRVCEPCYEQLNRKA [HGS_HUMAN_216] 0.69
IDPELARYLNRNYWE [HGS_HUMAN_329] 0.786
SKAVCSTYLQSRYYR [HIPK2_HUMAN_361] 0.831
SKTVCSTYLQSRYYR [HIPK3_HUMAN_359] 1.43
SKTVCSTYLQSRAAR [HIPK3_HUMAN_359_YA] 1.32
ISTRRSSYEDSSLPS [HNF4A_HUMAN_144] 1.11
IDDNEAAYLKAIIFF [HNF4A_HUMAN_288_YA] 1.67
GYGGYDDYGGYNDGY [HNRH2_HUMAN_246] 0.522
YAGGRGSYGDLGGPI [HNRPK_HUMAN_380] 0.626

The binders below were run against SHP2 N-SH2 domain T52S in the same assay as above. Settings: peptide library: Human pTyr.

Enrichment score, inactive:
SEDEEDDYQQKRKGV [HAP28_HUMAN_70] 0.888
IRSEENIYTIEENVY [HAVR2_HUMAN_265] 1.12
VGAHAGEYGAEALER [HBA_HUMAN_25] 0.515
ASPHCPVYVPDPTST [HCK_HUMAN_51] 0.979
SVTTGATYSAGPASW [AKAP8_HUMAN_51_YA] 0.557
AQEDGKVYINMPGRG [HCST_HUMAN_86] 0.538
IGAGKGKYYAVNFPM [HDAC2_HUMAN_222] 2.93
IGAGKGKYAAVNFPM [HDAC2_HUMAN_222_YA] 2.53
SSNFDSIYICPSTFA [HDAC6_HUMAN_570] 1.55
VRVCEPCYEQLNRKA [HGS_HUMAN_216] 0.894
IDPELARYLNRNYWE [HGS_HUMAN_329] 0.792
SKAVCSTYLQSRYYR [HIPK2_HUMAN_361] 1.06
SKTVCSTYLQSRYYR [HIPK3_HUMAN_359] 1.48
SKTVCSTYLQSRAAR [HIPK3_HUMAN_359_YA] 1.22
ISTRRSSYEDSSLPS [HNF4A_HUMAN_144] 0.757
IDDNEAAYLKAIIFF [HNF4A_HUMAN_288_YA] 2.06
GYGGYDDYGGYNDGY [HNRH2_HUMAN_246] 0.481
YAGGRGSYGDLGGPI [HNRPK_HUMAN_380] 0.812

Each binder was assayed against SHP2 N-SH2 domain wild-type in the same assay as above. Settings: peptide library: Human pTyr.

Enrichment score, inactive:
SEDEEDDYQQKRKGV [HAP28_HUMAN_70] 1.06
IRSEENIYTIEENVY [HAVR2_HUMAN_265] 1.36
VGAHAGEYGAEALER [HBA_HUMAN_25] 0.599
ASPHCPVYVPDPTST [HCK_HUMAN_51] 1.21
SVTTGATYSAGPASW [AKAP8_HUMAN_51_YA] 0.561
AQEDGKVYINMPGRG [HCST_HUMAN_86] 0.587
IGAGKGKYYAVNFPM [HDAC2_HUMAN_222] 2.68
IGAGKGKYAAVNFPM [HDAC2_HUMAN_222_YA] 2.8
SSNFDSIYICPSTFA [HDAC6_HUMAN_570] 1.72
VRVCEPCYEQLNRKA [HGS_HUMAN_216] 0.793
IDPELARYLNRNYWE [HGS_HUMAN_329] 0.897
SKAVCSTYLQSRYYR [HIPK2_HUMAN_361] 1.12
SKTVCSTYLQSRYYR [HIPK3_HUMAN_359] 1.4
SKTVCSTYLQSRAAR [HIPK3_HUMAN_359_YA] 1.14
ISTRRSSYEDSSLPS [HNF4A_HUMAN_144] 1.24
IDDNEAAYLKAIIFF [HNF4A_HUMAN_288_YA] 2.08
GYGGYDDYGGYNDGY [HNRH2_HUMAN_246] 0.483
YAGGRGSYGDLGGPI [HNRPK_HUMAN_380] 0.512
